{"source": "paper PMC12136788", "binders": {"B1": {"name": "chr1:23374948:23374949:-_ENSMUSG00000026158_ENSMUST00000027343|mus_mus|motif|central (ssRNA)", "RNA": "GGGAGUUCUACAGUCCGACGAUCCCUCAAAAUCUUAACACCUCACAAAUCGGUACAAGCUAAAGCUGGUGUAUUAUGUACCGGGAAUGAGGAAGUGUUUCUUGUCUUACUUACAGGGAUAUGAUUCACAAAUAAGUAUGUAUCCAACAGAGGAUUGAGCAUCA"}, "B2": {"name": "chr5:128448638:128448639:+_ENSG00000066583_ENST00000173527|hu_mus|hu_hu_hu_mus_False|68_68 (ssRNA)", "RNA": "GGGAGUUCUACAGUCCGACGAUCGGCACUCGCCUUAAUUAGGUUCUGAAUUUCCUUGAACUUCGGGUGGUCCUUAUCAGCCACCAGCUGUAGGAGGACAGCCUCACUAGUGGUCACGAUGAUCCCAGUGCGGGCAAGACGCUCCAACAGAGGAUUGAGCAUCA"}, "B3": {"name": "chr7:7679991:7679992:-_ENSG00000106399_ENST00000396682|hu_hu|hu_hu_hu_mus_False|48_78 (ssRNA)", "RNA": "GGGAGUUCUACAGUCCGACGAUCUGGGAUGAAUCUUUUCCAGCUUCCCCACGAAGCAGACAGGCUUGUCGAUAUACUGUGGUAACAUGCCGGCGUUGACGCGCGCUUUGGGGAGCUGCAUUAUGUCCUCCAUGAUUCUGCCGCCAACAGAGGAUUGAGCAUCA"}, "B4": {"name": "143533557_143533677_4073_CDS_ENSMUSG00000039477_ENSMUST00000151477|mouse|control|control (ssRNA)", "RNA": "GGGAGUUCUACAGUCCGACGAUCGCGGUGCUCUGUCUUACUCGGUAGUUCUAUCUGCGGCUCGGCAACCUGUGCAAAGUCUGAAACUUCAGAGGGCUCCCGGCAGCCCGGACCUGCUGUGCUCAACGCCUGGGCCUCGAGAGGCAACAGAGGAUUGAGCAUCA"}, "B5": {"name": "79659231_79659351_840_CDS_ENSMUSG00000089715_ENSMUST00000109627|mouse|control|control (ssRNA)", "RNA": "GGGAGUUCUACAGUCCGACGAUCCCCUUGUGGGUCUGGUCGUGGCAGGGGACGGCGAGACAUACGGUGGCAGCGGCGGAUGUCUUUCUUGAGCCGGUGCACCGCAGCGCUGGAGUGCAGCUUGGGCGAGGAGGCGCUGGCGCUCAACAGAGGAUUGAGCAUCA"}, "B6": {"name": "70697692_70698340_638_3pUTR_ENSMUSG00000003923_ENSMUST00000092430|mouse|control|control (ssRNA)", "RNA": "GGGAGUUCUACAGUCCGACGAUCGCUGCUCUUUAUACUUGCUCACAGCUUCUUUGUAUGCUUUCCACUCAGCUUUAAAAUCAGCUUCAUAAACCUUUUUUUCUGCUUCUGGUAGCUCCCUCCACAGGGCUGCAAUUUUCCUAACAACAGAGGAUUGAGCAUCA"}, "B7": {"name": "chr9:72466633:72466634:+_ENSMUSG00000037674_ENSMUST00000093820|mus_hu|motif|central (ssRNA)", "RNA": "GGGAGUUCUACAGUCCGACGAUCCUGAUAAGACUGUCCAGGCACAGCAAAAGCAUGAGGUUUCCUGAAACGGUCUUCCACGGGUUCCUGAUAGCUUGGGAGAAUACCAUGGCCAGAAACUGAUGAAUUACCAACCCCACUAUACAACAGAGGAUUGAGCAUCA"}, "B8": {"name": "chr2:198351390:198351391:-_ENSG00000144381_ENST00000345042|hu_mus|motif|central (ssRNA)", "RNA": "GGGAGUUCUACAGUCCGACGAUCUCAUUCCCACCCUCCACAGAAAGGCUGCUUCUGAACUCUCAUGUGGUGACACAGCGCGGCAGUCCUGAUGCUCACAGAACAGUAGAGAUGCCUCAGUGAUUUAAGUUGAAAGCAGGACACCAACAGAGGAUUGAGCAUCA"}, "B9": {"name": "chr7:151048522:151048523:+_ENSG00000013374_ENST00000566856|hu_mus|hu_hu_hu_mus_True|28_48 (ssRNA)", "RNA": "GGGAGUUCUACAGUCCGACGAUCCUGUUUCUUAUUUAUUACGAUCUUGAUGUAAUUUUCUUGAAAUCCGAAAGUUUCAGCUAUUUGGGACCUCAGUUCUCUACCAGUGAUGUGCAAGCGGGUCUCCAACAAGCUUUUCUUAUCCAACAGAGGAUUGAGCAUCA"}, "B10": {"name": "chr2:48026839:48026840:+_ENSG00000116062_ENST00000540021|hu_hu|hu_hu_hu_mus_False|48_48 (ssRNA)", "RNA": "GGGAGUUCUACAGUCCGACGAUCAUAGUGAGCCACUAGCGUCCUAAAUCUGGAACAGUGGCGGUCAUCCGAAAACUGGCCGAUGAAAAACUUUCCCAGUGAAGUGUCCACAAAGCAAACACCAUACACACGAGUGUGACCAGACAACAGAGGAUUGAGCAUCA"}, "B11": {"name": "chr3:10015032:10015033:+_ENSMUSG00000027533_ENSMUST00000029046|mus_mus|mus_mus_mus_hu_True|8_108 (ssRNA)", "RNA": "GGGAGUUCUACAGUCCGACGAUCGUUGUUGCCAUCACAAGUGAUGAUACAAUCUGGCUUGGCCAUUGCGCCCAUUUUUCGCAAAGCUAUUCCCACUCCUAGCUCCUUCAUGUAUUCAUCAAAGCCUUGGCUUUCCACCAGGCGCAACAGAGGAUUGAGCAUCA"}, "B12": {"name": "29274344_29274560_747_3pUTR_ENSMUSG00000032740_ENSMUST00000040182|mouse|control|control (ssRNA)", "RNA": "GGGAGUUCUACAGUCCGACGAUCAUACUCAUCCAGGUUAGUCCCAUUUCCUGCAGCCAGAGGUCCAAACGUUUUAACCCAAGUGACCAAGGGGCUGGUCAUGAACUGCUCCAGAAGGGGAGUGAAGAUUUCGUUCUCCAUUUUCAACAGAGGAUUGAGCAUCA"}, "B13": {"name": "chr11:4127340:4127341:+_ENSG00000167325_ENST00000300738|hu_mus|hu_hu_hu_mus_False|78_98 (ssRNA)", "RNA": "GGGAGUUCUACAGUCCGACGAUCGGCAUAGUCAGGGUGCUUAGUAGUCAAGGUCGCAGCUGUUUCAGCAGCCAGGGUGUCCAGUUCCACUGUGGUGACCCCACUAUAUAGGCCUUGGAUUACUUUCAUGGUGAUCUGAGCAGGCAACAGAGGAUUGAGCAUCA"}, "B14": {"name": "chr5:153406784:153406785:-_ENSG00000055147_ENST00000520667|hu_hu|FALSE|FALSE (ssRNA)", "RNA": "GGGAGUUCUACAGUCCGACGAUCUUUCACCUUUAUUUCACUUUCUUGGGAAAGCAUCUCCAGAGCUUCUAGAUGUGAAAGGCCUUGAAAUUCAUCAAAGAGUAGCCCAUAAUGAGUUUUCUUGUCUGUUUCCACGGUAACCUCCAACAGAGGAUUGAGCAUCA"}, "B15": {"name": "chrX:147030916:147030917:+_ENSG00000102081_ENST00000218200|hu_hu|motif|central (ssRNA)", "RNA": "GGGAGUUCUACAGUCCGACGAUCUAUAAUAUUCCUACCUGCCAAGAUAUAAAAAAGGCACAGAUCAUACAACUUUUUUUGCGGAUGAAAAUGACAAAUGUCACAUCACACACAUUUCAGGGUCCACUAAAAUACUGGAAAAGUCAACAGAGGAUUGAGCAUCA"}, "B16": {"name": "chr1:16667403:16667404:+_ENSMUSG00000025940_ENSMUST00000065373|mus_hu|motif|central (ssRNA)", "RNA": "GGGAGUUCUACAGUCCGACGAUCUGUCAUAACCCAUUAGAUGGAUAUAGUCUUCACGGUUUGGAAAGAGCACUGGAUUAACGGACAGUGAUUUUGUUUUAGCAUAAAAUGUGGUAAAUACAUGUUUAGCAUCUGGAAUCUUCACAACAGAGGAUUGAGCAUCA"}, "B17": {"name": "chr7:149068622:149068623:-_ENSMUSG00000025139_ENSMUST00000001950|mus_hu|FALSE|FALSE (ssRNA)", "RNA": "GGGAGUUCUACAGUCCGACGAUCGUGAGGCCUCUGAGUGUGGCUUGUGGUCUGUCCUGGGUUAGAGUUGUUAAUAUCACGGAACAUACCAUCUAGAACGUUCCAGUCCCGCCUGACACCUUCAUUCCCAAUGGAGAAGAAAUCCAACAGAGGAUUGAGCAUCA"}, "B18": {"name": "chr2:156904787:156904788:-_ENSMUSG00000055485_ENSMUST00000069098|mus_mus|FALSE|FALSE (ssRNA)", "RNA": "GGGAGUUCUACAGUCCGACGAUCCCCGCCGCUCAGGCCGCGACUGCGCUCCGGUCUCCUGCGUCCGGGGGCUGCGCUCGGGCCCUGCCCCGCGCCGCGCGGCCUCUCCGCCACUCGGUGCUCUCAGCGCGCGGCCCGAUCUCCCAACAGAGGAUUGAGCAUCA"}, "B19": {"name": "134901083_134901203_1774_ncRNA_ENSMUSG00000028809_ENSMUST00000134854|mouse|control|control (ssRNA)", "RNA": "GGGAGUUCUACAGUCCGACGAUCUACUGCACAUGACAACCUGUUACUAACAAUGCCACAGAUGCUCAACUGUCCACAAAACUAAGAGUCAAGAUUUCUACAAGUAAUUUGGGUUUUUAAACACUAGAUUCUGUUGGUCAAGCACAACAGAGGAUUGAGCAUCA"}, "B20": {"name": "chr9:26842284:26842285:-_ENSG00000120159_ENST00000333916|hu_hu|FALSE|FALSE (ssRNA)", "RNA": "GGGAGUUCUACAGUCCGACGAUCAAUUAAAUGAUGUGGCUUUGUUCAAACAUACCUAAAAUUCAAAAUCAAGUUAAAUACCUAGGCUGGCUUUUUUAUAUCACCAGCUUUCAUUAGGGCUUUAAUCGCUCUUGCCCUCAUCUCCAACAGAGGAUUGAGCAUCA"}, "B21": {"name": "chr6:30403744:30403745:+_ENSMUSG00000029775_ENSMUST00000068259|mus_hu|FALSE|FALSE (ssRNA)", "RNA": "GGGAGUUCUACAGUCCGACGAUCUAGGAAAGUUGAUUCACUGAUUAUCUAUGGAUUUCAAUGAUCUGUGCUUUACUCUUGCUACUGUGGAUAACCAAAGGUCACUGUUAACGUAUCUUUUGCUUAAAAAUGUUAAUAUGCUUACAACAGAGGAUUGAGCAUCA"}, "B22": {"name": "122453508_122455146_3497_3pUTR_ENSMUSG00000034602_ENSMUST00000073792|mouse|control|control (ssRNA)", "RNA": "GGGAGUUCUACAGUCCGACGAUCGACACUCCUUUCUCCUCGGCCUGCUUCUGCUGAGCUGCCUCUUCUUUAUUUAAUUCUUUUUCAAUCGUUUCCCCUCUUUGGAAAAAAUAAUCUGAUAUAUUCCACAAUAAGCCUAUUGACCAACAGAGGAUUGAGCAUCA"}}, "note": "The other results are listed elsewhere or left out."}
{"target": "T1, UNK ZnF1-3 (human, UniProt Q9C0B0 31-174)", "T1 sequence": "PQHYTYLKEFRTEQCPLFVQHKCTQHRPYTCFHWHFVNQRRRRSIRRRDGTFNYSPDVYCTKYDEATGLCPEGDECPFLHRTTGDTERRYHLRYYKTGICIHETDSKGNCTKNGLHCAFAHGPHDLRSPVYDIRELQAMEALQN", "test": "nsRBNS (natural sequence RNA bind-n-seq); RBNS binding buffer (assumed for nsRBNS): 25 mM Tris pH 7.5, 150 mM KCl, 3 mM MgCl2, 0.01% Triton X-100, 500 ug/ml BSA, 20 U/ml SUPERase-In, 4 C; UNK is unkempt and MSI1 is Musashi-1; names of the RNAs are library labels; protein concentration not given here; high values mean tight binding", "units": {"binding signal": "enrichment R"}}
{"binder": "B1", "binding signal": 1.41}
{"binder": "B2", "binding signal": 0.654}
{"binder": "B3", "binding signal": 0.591}
{"binder": "B4", "binding signal": 1.01}
{"binder": "B5", "binding signal": 0.821}
{"binder": "B6", "binding signal": 0.495}
{"binder": "B7", "binding signal": 1.23}
{"binder": "B8", "binding signal": 1.42}
{"binder": "B9", "binding signal": 0.598}
{"binder": "B10", "binding signal": 1.16}
{"binder": "B11", "binding signal": 0.735}
{"binder": "B12", "binding signal": 1.09}
{"binder": "B13", "binding signal": 0.896}
{"binder": "B14", "binding signal": 1.08}
{"binder": "B15", "binding signal": 1.19}
{"binder": "B16", "binding signal": 1.18}
{"binder": "B17", "binding signal": 0.834}
{"binder": "B18", "binding signal": 1.22}
{"binder": "B19", "binding signal": 0.962}
{"binder": "B20", "binding signal": 0.658}
{"binder": "B21", "binding signal": 0.541}
{"binder": "B22", "binding signal": 1.44}
